Measured values from the supplement of paper PMC10670038.
Counter-ions that a name gives are not always drawn. ± gives the standard deviation of the averaged measurements. In all, about 2,000 compounds were measured (“relative cell viability vs DMSO, compound alone”: median about 1.1, lowest 2% from about 0.29 on). The list shows a part of the results.

System: TE10
Experiment: relative cell viability vs DMSO, compound alone (fraction); TE10 is an esophageal squamous carcinoma line; higher = less cytotoxic
Settings: 2 µM; 48 h
Procedure: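 TE10 ESCC cells (1,000/well, 384-well plates) were treated with Selleck bioactive library compounds at 2 uM alone for 48 h. Viability was read by CellTiter-Glo and expressed relative to DMSO wells. Two technical replicates (A, B).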

Point of comparison: `CCNC(=O)C#Cc1ccc2c(C(=Nc3ccc(CN(C)C)cc3)c3ccccc3)c(O)[nH]c2c1`, relative cell viability 0.638 ± 0.033. Against it:
- CCOC(=O)c1ccc(C#Cc2ccc3c(c2)C(C)(C)CCS3)nc1 [Tazarotene] — higher, 1.11 ± 0.026
- CC1=NN(c2ccc(C(=O)O)cc2)C(=O)C1=Cc1ccc(-c2cc(C)c(C)cc2[N+](=O)[O-])o1 — higher, 1.04 ± 0.022
- Cn1c(=O)c(F)c(Nc2ccc(I)cc2F)c2c(=O)n(C[C@@H](O)CO)cnc21 — higher, 0.759 ± 0.013
- COc1ccc(/C=C/C(=O)C2(C(=O)/C=C/c3ccc(OC)c(OC)c3)CCCCC2)cc1OC — within error, 0.726 ± 0.088
- COc1ccc(-c2cc3c(C)nc(N)nc3n([C@H]3CC[C@H](OCCO)CC3)c2=O)cn1 — lower, 0.478 ± 0.012
- CCOc1nc2cccc(C(=O)OC(C)OC(=O)OC3CCCCC3)c2n1Cc1ccc(-c2ccccc2-c2nn[nH]n2)cc1 (centres undefined) [Candesartan Cilexetil] — higher, 0.982 ± 0.11
- Nc1ccc(S(N)(=O)=O)cc1 [Sulfanilamide] — higher, 1.1 ± 0.041
- CCN1CCC[C@H]1CNC(=O)c1cc(S(N)(=O)=O)ccc1OC [Levosulpiride] — higher, 1.01 ± 0.068
- CCCNS(=O)(=O)Nc1ncnc(OCCOc2ncc(Br)cn2)c1-c1ccc(Br)cc1 [Macitentan] — higher, 1.14 ± 0.013
- N#CC(=C(/N)Sc1ccccc1N)/C(C#N)=C(\N)Sc1ccccc1N — higher, 1.15 ± 0.088
- NC(=O)[C@@H](CCC(F)(F)F)N(Cc1ccc(-c2ncon2)cc1F)S(=O)(=O)c1ccc(Cl)cc1 — higher, 1.14 ± 0.1
- COc1ccc(CNCc2cccc3ccccc23)cc1 — higher, 1.02 ± 0.017
- Cc1[nH]c(/C=C2\C(=O)Nc3ccc(S(=O)(=O)Cc4c(Cl)cccc4Cl)cc32)c(C)c1C(=O)N1CCC[C@@H]1CN1CCCC1 — higher, 1.22 ± 0.029
- C=CCN1CCCC1CNC(=O)c1cc2nn[nH]c2cc1OC (centres undefined) [Alizapride HCl] — higher, 1.11 ± 0.11
- Nc1nc(Nc2ccc(S(N)(=O)=O)cc2)nn1C(=O)c1c(F)cccc1F — higher, 1.04 ± 0.038
- CC(C)c1onc(-c2c(Cl)cccc2Cl)c1COc1ccc(/C=C/c2cccc(C(=O)O)c2)c(Cl)c1 — higher, 1.01 ± 0.022
- NC(=O)CCCSc1nc(N)nc(-c2c(Cl)cc3c4c(cccc24)COC3)n1 — within error, 0.613 ± 0.024
- CC(C)(Oc1ccc(C2CC2(Cl)Cl)cc1)C(=O)O (centres undefined) [Ciprofibrate] — higher, 1.1 ± 0.028
- NCc1c[nH]c(=S)n1[C@H]1CCc2c(F)cc(F)cc2C1 [Nepicastat (SYN-117) HCl] — higher, 1.13 ± 0.039
- Nc1nccs1 [Aminothiazole] — higher, 1.05 ± 0.022
- NC(=O)c1cccnc1 [Nicotinamide (Vitamin B3)] — higher, 0.903 ± 0.037
- CCCc1nc(C(C)(C)O)c(C(=O)OCc2oc(=O)oc2C)n1Cc1ccc(-c2ccccc2-c2nnn[nH]2)cc1 [Olmesartan Medoxomil] — higher, 1.16 ± 0.046
- Cn1c(=O)c2c(ncn2CC(O)CO)n(C)c1=O (centres undefined) [Dyphylline] — higher, 1.18 ± 0.066
- Cc1c(Cn2c(C)nc3c(C(=O)O)cc(N4CCOCC4)cc32)cccc1C(F)(F)F — higher, 0.978 ± 0.063
- O=C(NCc1ccc(Oc2ccccc2)cc1)c1nc(-c2cc(Br)c(O)c(Br)c2)no1 — higher, 1.17 ± 0.012
- CCCCCCCCCCCCCCCC[N+](C)(C)C [Cetrimonium Bromide (CTAB)] — higher, 1.05 ± 0.039
- NC(=O)NO [Hydroxyurea] — higher, 1.11 ± 0.043
- Clc1ccccc1C(c1ccccc1)(c1ccccc1)n1ccnc1 [Clotrimazole] — higher, 1.14 ± 0.027
- Cc1cc(N2CCOCC2)cc2[nH]c(-c3c(NCC(O)c4cccc(Cl)c4)cc[nH]c3=O)nc12 (centres undefined) — higher, 0.881 ± 0.054
- Clc1ccc(COC(Cn2ccnc2)c2ccc(Cl)cc2Cl)cc1 (centres undefined) [Econazole nitrate] — higher, 0.891 ± 0.04
- CO[C@H]1C(=O)[C@]2(C)[C@@H](OC)C[C@H]3OC[C@@]3(OC(C)=O)[C@H]2[C@H](OC(=O)c2ccccc2)[C@]2(O)C[C@H](OC(=O)[C@H](O)[C@@H](NC(=O)OC(C)(C)C)c3ccccc3)C(C)=C1C2(C)C [Cabazitaxel] — within error, 0.669 ± 0.013
- O=S(=O)(O)CCSSCCS(=O)(=O)O [Dimesna] — higher, 1.22 ± 0.12
- O=C(Nc1ccc2c(O)cc(S(=O)(=O)O)cc2c1)Nc1ccc2c(O)cc(S(=O)(=O)O)cc2c1 — higher, 1.03 ± 0.016
- CCc1cc(/C(C)=N/OCc2ccc(C3CCCCC3)c(C(F)(F)F)c2)ccc1CN1CC(C(=O)O)C1 [BAF312 (Siponimod)] — higher, 1.1 ± 0.07
- Cc1cc(CS(=O)(=O)c2ccccc2)cc(OCc2ccc(CN3CCC[C@@H]3CO)cc2)c1 — higher, 1.08 ± 0.027
- O=C(O)c1ccc(N2C(=O)C(=Cc3ccc(-c4ccc([N+](=O)[O-])cc4)o3)C=C2c2ccccc2)cc1 — higher, 1.0435 ± 0.00023
- COc1cc2c(cc1OC)CN(CCc1ccc(NC(=O)c3cccc4c(=O)c5cccc(OC)c5[nH]c34)cc1)CC2 — higher, 1.03 ± 0.056
- CCN(CCCc1ccccc1)CCCc1ccccc1 [Alverine Citrate] — higher, 1.11 ± 0.059
- CN(C)CCN1C(=O)c2cccc3cc(N)cc(c23)C1=O [Amonafide] — higher, 1.07 ± 0.07
- CCOc1ccc(Cc2cc([C@@H]3O[C@H](CO)[C@@H](O)[C@H](O)[C@H]3O)ccc2Cl)cc1 [Dapagliflozin] — higher, 0.8703 ± 0.0012
- O[C@@H]1CO[C@H]2[C@@H]1OC[C@@H]2O [Isosorbide] — higher, 0.884 ± 0.062
- O=c1cc(CN2CCOCC2)occ1OCCCCCSc1ccnc2cc(C(F)(F)F)ccc12 — higher, 1.09 ± 0.02
- Cc1c(O)cccc1C(=O)N[C@@H](CSc1ccccc1)[C@H](O)CN1C[C@H]2CCCC[C@H]2C[C@H]1C(=O)NC(C)(C)C [Nelfinavir Mesylate] — higher, 1.1208 ± 0.00096
- CN(C)CCC(c1ccccc1)c1ccccn1 (centres undefined) [Pheniramine Maleate] — higher, 1.12 ± 0.044
- Cc1cccc(Nc2nc(-c3ccncc3)cs2)c1 — higher, 1.16 ± 0.06
- Nc1ccn([C@@H]2O[C@H](CO)[C@@H](O)[C@H]2O)c(=O)n1 [Cytidine] — higher, 1.13 ± 0.02
- CC(C)NCCCn1c(Sc2cc3c(cc2I)OCO3)nc2c(N)ncnc21 — within error, 0.623 ± 0.018
- Cc1ccc(O)c([C@H](CCN(C(C)C)C(C)C)c2ccccc2)c1 [Tolterodine tartrate] — higher, 1.09 ± 0.019
- Cc1cc(C)cc(NC(=O)Cc2ccc(OC(C)(C)C(=O)O)cc2)c1 [Efaproxiral Sodium] — higher, 1.11 ± 0.012
- CCCCOc1ccc(CC(=O)NO)cc1 [Bufexamac] — higher, 1.0117 ± 0.00046
- C[C@H]1c2cccc(O)c2C(O)=C2C(=O)[C@]3(O)C(O)=C(C(N)=O)C(=O)[C@@H](N(C)C)[C@@H]3[C@@H](O)[C@@H]21 [Doxycycline HCl] — higher, 1.26 ± 0.022
- C[C@H]1c2cccc(O)c2C(O)=C2C(=O)[C@]3(O)C(O)=C(C(N)=O)C(=O)[C@@H](N(C)C)[C@@H]3[C@@H](O)[C@@H]21 [Doxycycline Hyclate] — higher, 1.12 ± 0.046
- CCCCC(C=O)NC(=O)C(CC(C)C)NC(=O)C(CC(C)C)NC(C)=O (centres undefined) — lower, 0.266 ± 0.011
- CCCCCCCCCCCCCCCCO [1-Hexadecanol] — higher, 1.01 ± 0.14
- Nc1ncnc2c1c(-c1cnc3[nH]ccc3c1)nn2C1CCCC1 — lower, 0.505 ± 0.045
- CCOC(=O)c1ccc(NC(=O)O[C@H]2[C@H](OC(=O)Nc3ccc4c(c3)OCO4)[C@@H](OC(=O)Nc3ccc4c(c3)OCO4)[C@@H](OC)O[C@@H]2CO)cc1 — higher, 1.16 ± 0.047
- CCCCOc1cc(C(=O)NCCN(CC)CC)c2ccccc2n1 [Dibucaine HCl] — higher, 1.17 ± 0.056
- O=C1CCc2cc(OCCCCc3nnnn3C3CCCCC3)ccc2N1 [Cilostazol] — higher, 1.162 ± 0.011
- CCS(=O)(=O)CCn1c([N+](=O)[O-])cnc1C [Tinidazole] — higher, 1.25 ± 0.086
- N#C[C@@H]1C[C@@H]2C[C@@H]2N1C(=O)[C@@H](N)C12CC3CC(CC(O)(C3)C1)C2 [Saxagliptin] — higher, 1.02 ± 0.083
- CCC1=C(C)CN(C(=O)NCCc2ccc(S(=O)(=O)NC(=O)N[C@H]3CC[C@H](C)CC3)cc2)C1=O [Glimepiride] — higher, 1.21 ± 0.035
- COc1cc(Nc2nc3ccccc3nc2NS(=O)(=O)c2ccc(NC(=O)c3ccc(C)c(OC)c3)cc2)cc(OC)c1 — higher, 1.15 ± 0.067
- C[C@@]12C[C@@]3(O)O[C@@H](O1)[C@]1(COC(=O)c4ccccc4)[C@H]3C[C@@]12O[C@@H]1O[C@H](CO)[C@@H](O)[C@H](O)[C@H]1O [Paeoniflorin] — higher, 1.04 ± 0.029
- Cc1coc2c1C(=O)C(=O)c1c-2ccc2c(C)cccc12 [Tanshinone I] — higher, 1.11 ± 0.051
- CN(C)Cc1ccc(-c2nc3cccc4c3n2CCNC4=O)cc1 — higher, 1.2 ± 0.079
- O=C(/C=C\n1cnc(-c2cc(C(F)(F)F)cc(C(F)(F)F)c2)n1)NNc1cnccn1 — lower, 0.2768 ± 0.0027
- Cc1[nH]c(/C=C2\C(=O)Nc3ccc(S(=O)(=O)N(C)c4cccc(Cl)c4)cc32)c(C)c1C(=O)N1CCN(C)CC1 — higher, 1.19 ± 0.05
- CC(C)C[C@H](NC(=O)[C@H]1O[C@@H]1C(=O)O)C(=O)NCCCCN=C(N)N — higher, 1.05 ± 0.033
- COC(=O)[C@@H]1[C@H]2C[C@H]3c4[nH]c5ccccc5c4CCN3C[C@@H]2CC[C@@H]1O [Yohimbine HCl] — higher, 1.17 ± 0.004
- CN(C)CCSSCCNC(=O)C1CCN(C(=O)CSc2ccc(Cl)cc2)CC1 — higher, 1.11 ± 0.035
- CC(C)NCC(O)COc1cccc2ccccc12 (centres undefined) [Propranolol HCl] — higher, 1.07 ± 0.033
- Cc1nc(NC(=O)N2CCC[C@H]2C(N)=O)sc1-c1ccnc(C(C)(C)C(F)(F)F)c1 — higher, 0.684 ± 0.0077
- O=S(=O)(O)CCS [Mesna] — higher, 1.078 ± 0.004
- CCCCNC(=O)NS(=O)(=O)c1ccc(C)cc1 [Tolbutamide] — higher, 1.06 ± 0.016
- C[C@@H]1O[C@@H](O[C@H]2[C@H](Oc3cc(O)c(C(=O)CCc4ccc(O)cc4)c(O)c3)O[C@H](CO)[C@@H](O)[C@@H]2O)[C@H](O)[C@H](O)[C@H]1O [Naringin Dihydrochalcone] — higher, 1.01 ± 0.09
- CCCS(=O)(=O)Nc1ccc(F)c(C(=O)c2c[nH]c3ncc(-c4ccc(Cl)cc4)cc23)c1F [Vemurafenib (PLX4032, RG7204)] — higher, 1.13 ± 0.048
- Cc1cccc(-c2[nH]c(CNc3ccccc3F)nc2-c2ccc3ncnn3c2)n1 — higher, 1.158 ± 0.0069
- CCOC(=O)OC(C)OC1=C(C(=O)Nc2ccccn2)N(C)S(=O)(=O)c2ccccc21 (centres undefined) [Ampiroxicam] — higher, 0.984 ± 0.067
